# Measurements from the supplement of paper PMC8728848.
# This is one part of the list.
# B1: PX15618B-bfa-464-25-464 (Bacteroides fragilis) (protein)
# chain: DQEPPLYVNENDIFTSPTRIEATLNGLYAAIKNTGTKSLMGGKSYLVFDNRGDDVINISNNLVTLFNTYNMNVGITDAENADTWTYAYLAINKVNTFLQSLEGAREVAGENYDRYVQEAKFVRALAYYYLNNLYPTPYSVNPDAKSVPLRLTAEAGTENNNMPRSTVKQIYEHILSDLENISALDTEVNTYTGVTHATQAAANMLKMRVYMAMNEWDKAITAGELVTGYSLPEDVTLIYKAPYFSQESIFSLPMADTNIPNTQQSLAEYYYDGKIMLIDTKSGIMSKPDYSLATDKRIIAFKGEKDLLMKFTDAKTKLQWVPIFRYAETLLDLAECYANKAGGEATAKSLLKQVRGRSVDAATDPLNIDNLSGDALKEAIYNEKRLEFIGEGIRGIDIMRRGEHFIKVGENETINVGPSDEKYTWPIPQVELLLNKDINK
# How the values were obtained:
# Test in all cases: glycan array binding signal (z-score within array); higher = stronger binding
# Conditions in all cases: glycan notation: IUPAC condensed, linker removed
# [1] = target: GalNAc3S(b1-4)[Fuc(a1-3)]GlcNAc
# Procedure, shortened: (§1)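 Glycan array data came from 3228 arrays in the Consortium for Functional Glycomics database, and only arrays with an available protein sequence were kept. Glycan names were put into IUPAC-condensed notation, and columns mapping to the same glycan were averaged. The binding signal is a within-array Z-score, averaged across arrays of one protein sequence run at different concentrations or buffers and across linkers. A negative Z-score can be read as non-binding.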
# GalNAc4S6S(b1-4)GlcNAc = target: GalNAc4S6S(b1-4)GlcNAc
# Procedure, shortened: as §1
# GalNAc6S(b1-4)GlcNAc = target: GalNAc6S(b1-4)GlcNAc
# Procedure, shortened: as §1
# Glc(a1-4)Glc = target: Glc(a1-4)Glc
# Procedure, shortened: as §1
# [2] = target: Glc(a1-4)Glc(a1-4)Glc(a1-4)Glc
# Procedure, shortened: as §1
# Glc(a1-6)Glc(a1-6)Glc = target: Glc(a1-6)Glc(a1-6)Glc
# Procedure, shortened: as §1
# [3] = target: Glc(a1-6)Glc(a1-6)Glc(a1-6)Glc
# Procedure, shortened: as §1
# Glc(b1-4)Glc = target: Glc(b1-4)Glc
# Procedure, shortened: as §1
# Glc(b1-6)Glc = target: Glc(b1-6)Glc
# Procedure, shortened: as §1
# GlcA(b1-3)Gal = target: GlcA(b1-3)Gal
# Procedure, shortened: as §1
# GlcA(b1-3)GlcNAc = target: GlcA(b1-3)GlcNAc
# Procedure, shortened: as §1
# GlcA(b1-6)Gal = target: GlcA(b1-6)Gal
# Procedure, shortened: as §1
# [4] = target: GlcA3S(b1-3)Gal(b1-4)GlcNAc(b1-2)Man
# Procedure, shortened: as §1
# [5] = target: GlcA3S(b1-3)Gal(b1-4)GlcNAc(b1-3)Gal(b1-4)Glc
# Procedure, shortened: as §1
# [6] = target: GlcNAc(a1-3)Gal(b1-4)GlcNAc
# Procedure, shortened: as §1
# [7] = target: GlcNAc(a1-4)Gal(b1-3)GlcNAc
# Procedure, shortened: as §1
# [8] = target: GlcNAc(a1-4)Gal(b1-4)GalNAc
# Procedure, shortened: as §1
# [9] = target: GlcNAc(a1-4)Gal(b1-4)GlcNAc
# Procedure, shortened: as §1
# [10] = target: GlcNAc(a1-4)Gal(b1-4)GlcNAc(b1-3)Gal(b1-4)Glc
# Procedure, shortened: as §1
# [11] = target: GlcNAc(a1-4)Gal(b1-4)GlcNAc(b1-3)Gal(b1-4)GlcNAc
# Procedure, shortened: as §1
# [12] = target: GlcNAc(a1-4)Gal(b1-4)GlcNAc(b1-3)Gal(b1-4)GlcNAc(b1-3)Gal(b1-4)GlcNAc
# Procedure, shortened: as §1
# [13] = target: GlcNAc(a1-4)Gal(b1-4)GlcNAc(b1-3)Gal(b1-4)[Fuc(a1-3)]GlcNAc(b1-3)Gal(b1-4)[Fuc(a1-3)]GlcNAc
# Procedure, shortened: as §1
# [14] = target: GlcNAc(a1-6)Gal(b1-4)GlcNAc
# Procedure, shortened: as §1
# [15] = target: GlcNAc(b1-2)Gal(b1-3)GalNAc
# Procedure, shortened: as §1
# [16] = target: GlcNAc(b1-2)Man(a1-3)[GlcNAc(b1-2)Man(a1-6)]Man(b1-4)GlcNAc(b1-4)GlcNAc
# Procedure, shortened: as §1
# [17] = target: GlcNAc(b1-2)Man(a1-3)[GlcNAc(b1-2)Man(a1-6)]Man(b1-4)GlcNAc(b1-4)[Fuc(a1-6)]GlcNAc
# Procedure, shortened: as §1
# [18] = target: GlcNAc(b1-2)Man(a1-3)[GlcNAc(b1-4)][GlcNAc(b1-2)Man(a1-6)]Man(b1-4)GlcNAc(b1-4)GlcNAc
# Procedure, shortened: as §1
# [19] = target: GlcNAc(b1-2)Man(a1-3)[GlcNAc(b1-4)][GlcNAc(b1-2)Man(a1-6)]Man(b1-4)GlcNAc(b1-4)[Fuc(a1-6)]GlcNAc
# Procedure, shortened: as §1
# [20] = target: GlcNAc(b1-2)[GlcNAc(b1-4)]Man(a1-3)[GlcNAc(b1-2)Man(a1-6)]Man(b1-4)GlcNAc(b1-4)GlcNAc
# Procedure, shortened: as §1
# [21] = target: GlcNAc(b1-2)[GlcNAc(b1-4)]Man(a1-3)[GlcNAc(b1-4)][GlcNAc(b1-2)Man(a1-6)]Man(b1-4)GlcNAc(b1-4)GlcNAc
# Procedure, shortened: as §1
# [22] = target: GlcNAc(b1-2)[GlcNAc(b1-4)]Man(a1-3)[GlcNAc(b1-4)][GlcNAc(b1-2)[GlcNAc(b1-6)]Man(a1-6)]Man(b1-4)GlcNAc(b1-4)GlcNAc
# Procedure, shortened: as §1
# [23] = target: GlcNAc(b1-2)[GlcNAc(b1-4)]Man(a1-3)[GlcNAc(b1-4)][GlcNAc(b1-2)[GlcNAc(b1-6)]Man(a1-6)]Man(b1-4)GlcNAc(b1-4)[Fuc(a1-6)]GlcNAc
# Procedure, shortened: as §1
# [24] = target: GlcNAc(b1-2)[GlcNAc(b1-6)]Man(a1-6)[GlcNAc(b1-2)Man(a1-3)]Man(b1-4)GlcNAc(b1-4)GlcNAc
# Procedure, shortened: as §1
# [25] = target: GlcNAc(b1-2)[GlcNAc(b1-6)]Man(a1-6)[GlcNAc(b1-2)Man(a1-3)]Man(b1-4)GlcNAc(b1-4)[Fuc(a1-6)]GlcNAc
# Procedure, shortened: as §1
# [26] = target: GlcNAc(b1-2)[GlcNAc(b1-6)]Man(a1-6)[GlcNAc(b1-4)][GlcNAc(b1-2)Man(a1-3)]Man(b1-4)GlcNAc(b1-4)GlcNAc
# Procedure, shortened: as §1
# GlcNAc(b1-3)Fuc = target: GlcNAc(b1-3)Fuc
# Procedure, shortened: as §1
# GlcNAc(b1-3)Gal = target: GlcNAc(b1-3)Gal
# Procedure, shortened: as §1
# [27] = target: GlcNAc(b1-3)Gal(b1-3)GalNAc
# Procedure, shortened: as §1
binder,measurement,setting,value
B1,glycan array binding signal (z-score),[1],-0.115
same,glycan array binding signal (z-score),GalNAc4S6S(b1-4)GlcNAc,-0.388
same,glycan array binding signal (z-score),GalNAc6S(b1-4)GlcNAc,-0.532
same,glycan array binding signal (z-score),Glc(a1-4)Glc,0.085
same,glycan array binding signal (z-score),[2],0.287
same,glycan array binding signal (z-score),Glc(a1-6)Glc(a1-6)Glc,-0.394
same,glycan array binding signal (z-score),[3],0.025
same,glycan array binding signal (z-score),Glc(b1-4)Glc,-0.138
same,glycan array binding signal (z-score),Glc(b1-6)Glc,-0.497
same,glycan array binding signal (z-score),GlcA(b1-3)Gal,-0.103
same,glycan array binding signal (z-score),GlcA(b1-3)GlcNAc,0.019
same,glycan array binding signal (z-score),GlcA(b1-6)Gal,-0.346
same,glycan array binding signal (z-score),[4],-0.317
same,glycan array binding signal (z-score),[5],-0.127
same,glycan array binding signal (z-score),[6],-0.417
same,glycan array binding signal (z-score),[7],0.082
same,glycan array binding signal (z-score),[8],0.543
same,glycan array binding signal (z-score),[9],-0.125
same,glycan array binding signal (z-score),[10],-0.196
same,glycan array binding signal (z-score),[11],-0.455
same,glycan array binding signal (z-score),[12],-0.175
same,glycan array binding signal (z-score),[13],0.561
same,glycan array binding signal (z-score),[14],-0.455
same,glycan array binding signal (z-score),[15],-0.296
same,glycan array binding signal (z-score),[16],-0.301
same,glycan array binding signal (z-score),[17],1.04
same,glycan array binding signal (z-score),[18],-0.616
same,glycan array binding signal (z-score),[19],-0.004
same,glycan array binding signal (z-score),[20],-0.364
same,glycan array binding signal (z-score),[21],-0.055
same,glycan array binding signal (z-score),[22],-0.295
same,glycan array binding signal (z-score),[23],0.399
same,glycan array binding signal (z-score),[24],-0.328
same,glycan array binding signal (z-score),[25],0.701
same,glycan array binding signal (z-score),[26],0.249
same,glycan array binding signal (z-score),GlcNAc(b1-3)Fuc,0.565
same,glycan array binding signal (z-score),GlcNAc(b1-3)Gal,0.088
same,glycan array binding signal (z-score),[27],0.064
